{"source": "paper PMC4336329", "about": "(PLoS ONE, 2015)", "note": "Out of some 310,000 compounds screened, about 14,000 (4.5%) showed an effect of 50% or more. Effects have a minus sign here. Some of the results follow. Where a SMILES comes first, the peptide text is derived from it. The star is where a group is joined. Tos = Cc1ccc(S(=O)(=O)*)cc1;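 also: peak tail current of the secondary pulse compared with the same well before compound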"}
{"target": "human ether-à-go-go-related gene (hERG) potassium channel (human, UniProt Q12809)", "sequence (Q12809 whole entry, looked up)": "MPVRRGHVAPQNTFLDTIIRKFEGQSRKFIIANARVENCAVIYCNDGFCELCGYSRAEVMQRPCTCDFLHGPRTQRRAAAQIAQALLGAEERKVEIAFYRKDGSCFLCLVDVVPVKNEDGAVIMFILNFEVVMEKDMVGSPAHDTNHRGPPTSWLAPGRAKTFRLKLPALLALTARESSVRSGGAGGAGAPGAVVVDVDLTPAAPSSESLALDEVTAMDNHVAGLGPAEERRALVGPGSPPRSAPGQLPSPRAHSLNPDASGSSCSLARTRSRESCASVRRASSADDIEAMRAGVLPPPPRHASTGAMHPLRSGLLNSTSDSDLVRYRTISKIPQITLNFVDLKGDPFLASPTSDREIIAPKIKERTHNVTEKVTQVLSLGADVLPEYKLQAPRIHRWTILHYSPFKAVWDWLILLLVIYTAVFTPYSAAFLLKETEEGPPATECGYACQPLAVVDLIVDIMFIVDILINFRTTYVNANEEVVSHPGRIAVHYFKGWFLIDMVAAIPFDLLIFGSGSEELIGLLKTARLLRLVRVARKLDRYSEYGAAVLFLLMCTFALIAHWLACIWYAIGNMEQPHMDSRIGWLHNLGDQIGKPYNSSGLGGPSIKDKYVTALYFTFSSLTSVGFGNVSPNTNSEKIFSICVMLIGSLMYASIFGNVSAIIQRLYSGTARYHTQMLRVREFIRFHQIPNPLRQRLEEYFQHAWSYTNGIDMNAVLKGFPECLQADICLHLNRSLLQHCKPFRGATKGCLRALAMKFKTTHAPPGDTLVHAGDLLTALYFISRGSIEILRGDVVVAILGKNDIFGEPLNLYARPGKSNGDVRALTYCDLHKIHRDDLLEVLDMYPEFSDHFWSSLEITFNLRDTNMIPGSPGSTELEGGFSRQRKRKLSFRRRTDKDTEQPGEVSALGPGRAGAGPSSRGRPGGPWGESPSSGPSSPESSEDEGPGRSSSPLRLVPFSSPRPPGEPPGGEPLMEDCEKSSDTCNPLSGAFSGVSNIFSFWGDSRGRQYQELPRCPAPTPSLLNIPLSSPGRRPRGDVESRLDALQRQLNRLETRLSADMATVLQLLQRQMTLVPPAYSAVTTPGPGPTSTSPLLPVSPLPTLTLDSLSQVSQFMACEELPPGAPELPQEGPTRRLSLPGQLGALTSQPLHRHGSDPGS", "test": "primary screen, population patch clamp on CHO cells stably expressing hERG", "units": {"hERG current change (%, negative = inhibition) at 10uM": "%"}}
{"smiles": "Cc1ccc(S(=O)(=O)N[C@@H](CO)C(=O)N[C@@H](Cc2ccc(O)cc2)C(=O)O)cc1", "note": "(Tos-Ser-Tyr-OH)", "hERG current change (%, negative = inhibition) at 10uM": 15.7}
{"smiles": "O=C1C=C(NC2CC2)C2(CCCCC2)O1", "hERG current change (%, negative = inhibition) at 10uM": 4.24}
{"smiles": "O=C(c1ccc(N2CCCC2)c([N+](=O)[O-])c1)N1CCN(c2ccccn2)CC1", "hERG current change (%, negative = inhibition) at 10uM": -21.8}
{"smiles": "Cc1nc(S(=O)(=O)c2ccc(Cl)cc2)nc2c1CCC2", "hERG current change (%, negative = inhibition) at 10uM": -5.35}
{"smiles": "CN(Cc1ccccc1Br)C(=O)CSc1nnnn1C1CC1", "hERG current change (%, negative = inhibition) at 10uM": -8.75}
{"smiles": "CC(C)c1onc(C(=O)N2CCN(C(c3ccccc3)c3ccccc3)CC2)c1[N+](=O)[O-]", "hERG current change (%, negative = inhibition) at 10uM": 13.6}
{"smiles": "COc1cccc(NS(=O)(=O)CC23CCC(CC2=O)C3(C)C)c1", "note": "(stereo not shown)", "hERG current change (%, negative = inhibition) at 10uM": 8.25}
{"smiles": "COc1cc(-c2nnc(-c3ccccc3)o2)cc(OC)c1OC", "hERG current change (%, negative = inhibition) at 10uM": -14.7}
{"smiles": "COc1ccccc1CNn1c(-c2cccc(C)c2)nc2ccccc2c1=O", "hERG current change (%, negative = inhibition) at 10uM": -11}
{"smiles": "CCOC(=O)CSC1=C(C#N)C(c2ccc(C)cc2)C2=C(CCCC2=O)N1", "note": "(stereo not shown)", "hERG current change (%, negative = inhibition) at 10uM": -22.1}
{"smiles": "Cc1cc(NC(=O)c2ccccc2F)cc(C)c1OCC(=O)N1CCOCC1", "hERG current change (%, negative = inhibition) at 10uM": -1.38}
{"smiles": "Cc1cc(NC(=O)COc2ccc3ccccc3c2)no1", "hERG current change (%, negative = inhibition) at 10uM": 12.3}
{"smiles": "CC1(C)CC(=O)C=C(NCc2cccs2)C1", "hERG current change (%, negative = inhibition) at 10uM": -11.8}
{"smiles": "COc1ccccc1NC(=O)COc1ccc2ccccc2c1", "hERG current change (%, negative = inhibition) at 10uM": 4.02}
{"smiles": "CCOC(=O)Cn1c(S(=O)(=O)Cc2ccc(Cl)cc2)nc(-c2ccccc2)c1-c1ccccc1", "hERG current change (%, negative = inhibition) at 10uM": -3.38}
{"smiles": "CCOC(=O)N1CCC(NC(=S)Nc2ccc3nc(N4CCN(CC)CC4)cc(C)c3c2)CC1", "hERG current change (%, negative = inhibition) at 10uM": 17.6}
{"smiles": "CC(=O)c1c(C)[nH]c(C(=O)OCCOc2ccccc2)c1C", "hERG current change (%, negative = inhibition) at 10uM": -11.5}
{"smiles": "CCn1nc(C(=O)OCC(=O)N2CC(=O)Nc3ccccc32)c2ccccc2c1=O", "hERG current change (%, negative = inhibition) at 10uM": -0.7}
{"smiles": "COC(=O)c1ccc(NS(=O)(=O)N(C)C)cc1", "hERG current change (%, negative = inhibition) at 10uM": 0.423}
{"smiles": "COc1ccc(NC(=O)NCc2ccncc2)c(OC)c1", "hERG current change (%, negative = inhibition) at 10uM": 2.58}
{"smiles": "COc1cc2cc(CCOC(=O)CCCC(=O)O)oc(=O)c2cc1OC", "hERG current change (%, negative = inhibition) at 10uM": 16.5}
{"smiles": "Cc1ccc(-n2cnc3cc(NCc4cccs4)ccc32)cc1", "hERG current change (%, negative = inhibition) at 10uM": -14.4}
{"smiles": "CN(C)c1ccc(C(=S)NCc2ccco2)cc1", "hERG current change (%, negative = inhibition) at 10uM": 15}
{"smiles": "CN(C)c1oc(-c2ccco2)nc1C#N", "hERG current change (%, negative = inhibition) at 10uM": -14.1}
{"smiles": "O=C(c1cc(F)ccc1F)C1CCCN(C(=O)CCN2CCCCO2)C1", "note": "(stereo not shown)", "hERG current change (%, negative = inhibition) at 10uM": 15}
{"smiles": "COc1ccc(C/C(C)=N/NS(=O)(=O)c2ccc(Br)cc2)cc1", "hERG current change (%, negative = inhibition) at 10uM": -14.9}
{"smiles": "Cc1cc(NC(=O)CN2CCC(O)(c3cccc(F)c3)CC2)no1", "hERG current change (%, negative = inhibition) at 10uM": -1.66}
{"smiles": "Cc1c(NC(=O)c2c(N)n(-c3ccccc3)c3nc4ccccc4nc23)c(=O)n(-c2ccccc2)n1C", "hERG current change (%, negative = inhibition) at 10uM": -23.1}
{"smiles": "Cc1cn[nH]c1.Cl", "hERG current change (%, negative = inhibition) at 10uM": 4.39}
{"smiles": "CN(C)/C(=N\\S(=O)(=O)c1ccccc1)c1ccc(Cl)cc1", "hERG current change (%, negative = inhibition) at 10uM": 14.3}
{"smiles": "O=C(NCC(=O)N(Cc1ccccc1)C(C(=O)NC1CCCC1)c1ccncc1)c1ccco1", "note": "(stereo not shown)", "hERG current change (%, negative = inhibition) at 10uM": 5.71}
{"smiles": "COc1ccc(NC(=O)c2ccc(S(=O)(=O)N3CC(C)CC(C)C3)cc2)cc1S(N)(=O)=O", "note": "(stereo not shown)", "hERG current change (%, negative = inhibition) at 10uM": 25.2}
{"smiles": "CN(CC(=O)Nc1cc(S(=O)(=O)N2CCOCC2)ccc1Cl)C1CCS(=O)(=O)C1", "note": "(stereo not shown)", "hERG current change (%, negative = inhibition) at 10uM": 18.7}
{"smiles": "Cc1cc(C(=O)NNC(=O)CN2C(=O)NC(C)(c3ccccc3)C2=O)c(C)o1", "note": "(stereo not shown)", "hERG current change (%, negative = inhibition) at 10uM": 4.77}
{"smiles": "O=C(CCNC(=O)Cn1ccc2ccccc2c1=O)NCCN1CCN(c2cccc(Cl)c2)CC1", "hERG current change (%, negative = inhibition) at 10uM": -7.83}
{"smiles": "COc1ccc(OC)c(NC(=O)COC(=O)CN(C)S(=O)(=O)c2ccc(C)cc2)c1", "hERG current change (%, negative = inhibition) at 10uM": -37.1}
{"smiles": "CC1CCCCC1NC(=O)CN1C(=O)NC(C)(c2cccc(Br)c2)C1=O", "note": "(stereo not shown)", "hERG current change (%, negative = inhibition) at 10uM": 2.42}
{"smiles": "COC1CCN(C(=O)C2CCC(=O)N(C3CCCCCC3)C2)CC1", "note": "(stereo not shown)", "hERG current change (%, negative = inhibition) at 10uM": 19.1}
{"smiles": "O=C(CSC1=NCCS1)NC(c1ccccc1)c1ccccc1", "hERG current change (%, negative = inhibition) at 10uM": 17.1}
{"smiles": "CN1C(=S)SC(N2OC3C(=O)N(c4ccccc4)C(=O)C3C2c2ccc(Cl)cc2)C1(C)C", "note": "(stereo not shown)", "hERG current change (%, negative = inhibition) at 10uM": 0.687}
{"smiles": "COc1cccc(C(=O)NCCS(=O)(=O)NCC2CCCO2)c1", "note": "(stereo not shown)", "hERG current change (%, negative = inhibition) at 10uM": 10.8}
{"smiles": "Cc1ccc(CNC(=O)CN(C(=O)C2(C)CC(=O)N=C3C=CC=CN32)c2ccccc2)cc1", "note": "(stereo not shown)", "hERG current change (%, negative = inhibition) at 10uM": 28.4}
{"smiles": "Cc1ccc(-c2c(C(=O)NCc3ccc(F)cc3)oc(=O)c3ccccc23)cc1", "hERG current change (%, negative = inhibition) at 10uM": -13}
{"smiles": "COc1ccccc1NC(=O)CCNS(=O)(=O)c1ccc2c(c1)CC(C)N2C(=O)C1CC1", "note": "(stereo not shown)", "hERG current change (%, negative = inhibition) at 10uM": 17.6}
{"smiles": "CN1C(=O)C(O)(c2sc(N)nc2-c2ccccc2)c2ccccc21", "note": "(stereo not shown)", "hERG current change (%, negative = inhibition) at 10uM": 2.39}
{"smiles": "Cc1ccc(NCc2nnc(SCC(=O)N3c4ccccc4Sc4ccccc43)o2)c(C)c1", "hERG current change (%, negative = inhibition) at 10uM": -0.533}
{"smiles": "CC(C)(CCl)C(=O)Nc1ccc(OC(F)(F)F)cc1", "hERG current change (%, negative = inhibition) at 10uM": -24.7}
{"smiles": "O=C(NCCCNC(=O)c1cccnc1)c1ccc(Cl)cc1", "hERG current change (%, negative = inhibition) at 10uM": -23.5}
{"smiles": "O=c1[nH]c2cc(Cl)ccc2n(CCNc2ncc(C(F)(F)F)cc2Cl)c1=O", "hERG current change (%, negative = inhibition) at 10uM": 3.01}
{"smiles": "COc1cccc(C2c3[nH]c4ccccc4c3CCN2Cc2cccc(C)n2)c1", "note": "(stereo not shown)", "hERG current change (%, negative = inhibition) at 10uM": -26.6}
{"smiles": "Oc1oc(-c2ccccc2)nc1C=NCc1ccncc1", "hERG current change (%, negative = inhibition) at 10uM": -7.6}
{"smiles": "Cc1cccc(OC(C)C(=O)Nc2ccccc2C(=O)N2CCCCC2)c1", "note": "(stereo not shown)", "hERG current change (%, negative = inhibition) at 10uM": -0.472}
{"smiles": "CC(C)c1ccc[n+](-c2nc([O-])sc2C=O)c1", "hERG current change (%, negative = inhibition) at 10uM": 14.7}
{"smiles": "CCOc1ccc(-c2nc(CN3CCCC(C(=O)N4CCOCC4)C3)c(C)o2)cc1", "note": "(stereo not shown)", "hERG current change (%, negative = inhibition) at 10uM": -26.5}
{"smiles": "CCOC(=O)c1cc(CC)sc1NC(=O)CN1CCN(C(=O)c2ccco2)CC1", "hERG current change (%, negative = inhibition) at 10uM": -67.2}
